PubChem BioAssay AID588453 (National Center for Advancing Translational Sciences (NCATS), 2011)
Where “and” joins values, the source holds several entries; their conditions need not be identical. Equal entries are not always repeated. The whole screen tested about 390,000 compounds, of which about 4,000 (1%) were called active. The shares of active, inactive and inconclusive entries below differ from those in the screen. Calls come from the whole dose curve; as a rule, active = well fitted inhibition curve with a large enough effect; inconclusive = small, poorly fitted or top-dose-only effect; inactive = no such curve, though single readings can be large or run the other way. Potencies beside an inconclusive call are fits to weak or partial responses and may not hold up.
% is set by controls: 0 for no effect and ±100 for the full control effect; potency is the fitted concentration of half-maximal effect; tags give direction and shape of the fitted curve.
Note: nearly all actives have a fitted effect of over 65% in size.

The molecules below were run against Thioredoxin reductase 1, cytoplasmic (Rattus norvegicus) (UniProt O89049) (assay: qHTS Assay for Inhibitors of Mammalian Selenoprotein Thioredoxin Reductase 1 (TrxR1): qHTS). Settings: recombinant rTrxR1, NADPH fluorescence consumption, selenite substrate; series mostly up to 114 µM; activity change, negative = inhibition: at the top concentration.
UniProt O89049, sequence (O89049 whole entry, looked up): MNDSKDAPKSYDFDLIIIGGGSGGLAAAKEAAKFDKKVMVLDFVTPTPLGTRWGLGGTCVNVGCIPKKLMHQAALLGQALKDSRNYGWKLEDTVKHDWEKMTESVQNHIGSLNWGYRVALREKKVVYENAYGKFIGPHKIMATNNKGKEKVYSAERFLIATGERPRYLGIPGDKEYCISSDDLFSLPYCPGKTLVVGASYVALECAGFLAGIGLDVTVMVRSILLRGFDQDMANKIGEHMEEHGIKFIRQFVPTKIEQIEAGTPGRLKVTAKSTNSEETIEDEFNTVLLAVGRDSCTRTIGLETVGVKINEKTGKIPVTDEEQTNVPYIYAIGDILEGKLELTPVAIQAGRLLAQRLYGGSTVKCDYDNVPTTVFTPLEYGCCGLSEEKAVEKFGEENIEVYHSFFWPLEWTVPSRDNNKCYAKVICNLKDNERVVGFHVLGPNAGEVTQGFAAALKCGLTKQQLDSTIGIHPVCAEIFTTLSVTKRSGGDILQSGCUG
In short: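 Rat TrxR1 (90 nM in the dispensed reagent) was pre-reduced with 400 uM NADPH for 5 min at room temperature, then incubated with compound for 15 min. After 400 uM selenite was added, NADPH fluorescence (Ex 340/Em 450 nm) was followed for 8 min.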
With O=c1c2cnn(-c3ccc(F)cc3)c2ncn1Cc1ccc(F)cc1 the Potency was inconclusive: 89.1 µM [inhibitor, single point].
With Cc1ccccc1C(=O)NNC(=S)Nc1cccc(C(F)(F)F)c1 the Potency was inconclusive: 15.8 µM [inhibitor, partial curve].
In the case of COc1ccc(C(=O)Oc2cc(-c3ccc4c(c3)OCO4)cc(=O)c3c(C)oc(C)c23)cc1, the Potency is reported as inconclusive: 44.7 µM [inhibitor, partial curve, poor fit].
CCOC(=O)C(NC(=O)c1cccc(Cl)c1)(Nc1sc2c(c1C(N)=O)CCC2)C(F)(F)F (centres undefined) was tested, and the Potency was inconclusive: 20 µM [inhibitor, full curve].
In the case of Cc1[nH]n(-c2ccccc2)c(=S)c1C=Nc1ccc([N+](=O)[O-])cc1, the Potency is reported as inconclusive: 14.1 µM [inhibitor, partial curve].
For O=[N+]([O-])c1cccc(-c2n[nH]c(=S)n2-c2ccc(Br)cc2)c1, the Potency was inconclusive: 35.5 µM [inhibitor, partial curve].
In the case of CC(C)c1ccc(CC(NC(=O)c2ccccc2)C(=O)NCC(=O)O)cc1 (centres undefined), the Potency is reported as inconclusive: 7.08 µM [inhibitor, single point].
In the case of CCC(C)NS(=O)(=O)c1ccc(NC(=O)CNCc2cccs2)cc1 (centres undefined), the Potency is reported as inconclusive: 79.4 µM [inhibitor, single point].
COc1cc(/C=N/NC(=S)Nc2cccc(S(=O)(=O)N(C)C)c2)ccc1O was tested, and the Potency was inconclusive: 31.6 µM [inhibitor, partial curve].
For O=[N+]([O-])c1cc(NS(=O)(=O)c2ccc(Cl)nc2)ccc1Cl, the Potency was inconclusive: 44.7 µM [inhibitor, single point].
With C[C@]12c3[nH]c4cc(-c5ccco5)ccc4c3CCN1C(=O)[C@@H](CC(=O)NCC13CC4CC(CC(C4)C1)C3)C[C@@H]2C(=O)N1CCOCC1 the “activity change, negative = inhibition” value was inactive: 6.25%.
In the case of Oc1ccccc1N=Nc1ccccc1O, the “activity change, negative = inhibition” value is reported as inactive: 3.51%.
For Cc1cc2ccccn2c1C(=S)NC(=O)c1ccccc1, the Potency was inconclusive: 50.1 µM [inhibitor, partial curve].
In the case of C/C(=N/NC(=O)c1ccccn1)c1c[nH]c2ccccc12, the Potency is reported as inconclusive: 70.8 µM [inhibitor, partial curve].
With CN(C)c1cc2c(c(N(C)C)c1)C(=O)c1ccccc1C2=O the “activity change, negative = inhibition” value was inactive: 7.43% [at 57.1 µM].
For O=C1CS(=O)(=O)N(Cc2cccc(F)c2)c2ccc(Br)cc21, the Potency was active: 79.4 µM.
COCc1cc(C)nc2sc3c(c12)NC(c1ccc(O)cc1)N(c1ccc(C)cc1)C3=O (centres undefined) was tested, and the Potency was inconclusive: 79.4 µM [inhibitor, single point].
In the case of COc1ccc(CCN(C)Cc2c(O)ccc3ccccc23)cc1OC, the Potency is reported as inconclusive: 7.08 µM [inhibitor, full curve].
In the case of O=C(CSc1nc2ccc([N+](=O)[O-])cc2s1)c1ccc2ccccc2c1, the Potency is reported as inconclusive: 89.1 µM [inhibitor, single point].
For c1ccc2nc3c(nc2c1)c1ccccc1n3CCN1CCOCC1, the “activity change, negative = inhibition” value was inactive: -18%.
In the case of CCC(C)NC(=O)[C@H](CSCc1ccccc1)N1Cc2ccccc2C1=O (some centres undefined), the “activity change, negative = inhibition” value is reported as inactive: 12%.
For Cc1[nH]c2ccc(Br)cc2c(=O)c1CN1CCCCCC1, the Potency was inconclusive: 50.1 µM [inhibitor, partial curve, poor fit].
CN(C)C(=O)C(=O)c1cccn1-c1ccccc1C#N was tested, and the Potency was inconclusive: 89.1 µM [inhibitor, single point].
With COCCNC(=S)NCCCNc1nc2cc3c(cc2cc1C#N)OCO3 the “activity change, negative = inhibition” value was inactive: 105%.
CS(=O)(=O)c1ccc2c(c1)SC1=NC(=O)/C(=C/c3ccco3)C(=N)N12 was tested, and the Potency was inconclusive: 50.1 µM [inhibitor, partial curve].
For COc1ccc(CNC(=O)c2cnn(-c3ccc(C)cc3)c2-n2cccc2)cc1OC, the “activity change, negative = inhibition” value was inactive: 21.2% [at 57.1 µM].
For O=C1c2cccc3c([N+](=O)[O-])ccc(c23)C(=O)N1CC1CCCO1 (centres undefined), the Potency was inconclusive: 70.8 µM [inhibitor, partial curve].
C=CCOc1ccc(/C(O)=C2\C(=O)C(=O)N(CCN(C)C)C2c2cccs2)cc1 (centres undefined) was tested, and the Potency was inconclusive: 20 µM [inhibitor, partial curve, poor fit].
In the case of COc1ccccc1CNCc1cc(Br)ccc1OC, the Potency is reported as inconclusive: 31.6 µM [inhibitor, single point].
CCC(=O)OC1(C#CCOc2ccc(OC)cc2)CCN(C)CC1 was tested, and the Potency was inconclusive: 79.4 µM [inhibitor, single point].
With Nc1cccc(O)c1 the Potency was inconclusive: 10 µM [inhibitor, partial curve, poor fit].
In the case of COc1ccc(NC(=O)CSc2oc(-c3cccs3)nc2S(=O)(=O)c2ccc(Br)cc2)c(OC)c1, the Potency is reported as inconclusive: 79.4 µM [inhibitor, single point].
CN/C(=C\[N+](=O)[O-])NCCSCc1ccc(CN(C)C)o1 was tested, and the Potency was inconclusive: 23.8 µM [inhibitor, partial curve] and inconclusive: 70.8 µM [inhibitor, partial curve].
C[C@@H]1NC(=O)c2cc([N+](=O)[O-])cc(I)c2NCCCC[C@@H](C(N)=O)NC(=O)[C@H](CC(N)=O)NC1=O was tested, and the Potency was inconclusive: 50.1 µM [inhibitor, partial curve, poor fit].
CCOC(=O)c1cc(C(=O)n2cc(Cl)cn2)nn1C was tested, and the Potency was inconclusive: 44.7 µM [inhibitor, partial curve, poor fit].
With COc1ccccc1CN1COc2ccc3c(C)cc(=O)oc3c2C1 the Potency was inconclusive: 22.4 µM [inhibitor, partial curve, poor fit].
CCOC(=O)c1cc2c(=O)n3ccccc3nc2n(CCOC)c1=NC(=O)c1ccncc1 was tested, and the Potency was inconclusive: 89.1 µM [inhibitor, single point].
In the case of O=[N+]([O-])c1ccc(N=Cc2ccc(Br)c([N+](=O)[O-])c2)cc1, the Potency is reported as inconclusive: 70.8 µM [inhibitor, partial curve].
Cc1cc(C)cc(NC(=O)COC(=O)[C@@H](NC(=O)c2ccco2)C(C)C)c1 was tested, and the “activity change, negative = inhibition” value was inactive: 18.8% [at 57.1 µM].
In the case of C/C=C/C=C\C(=O)Nc1cccc(C2=NOC3(C2)C[C@@H](C(N)=O)N(C(=O)c2cc([N+](=O)[O-])cc([N+](=O)[O-])c2)C3)c1 (some centres undefined), the Potency is reported as inconclusive: 22.4 µM [inhibitor, partial curve].
In the case of O=C(NC(=S)Nc1cccnc1Cl)c1ccc(Cl)cc1, the Potency is reported as inconclusive: 22.4 µM [inhibitor, partial curve, poor fit].
O=C(N/N=C/c1cc(Br)c(Br)o1)C(O)c1ccccc1 (centres undefined) was tested, and the Potency was inconclusive: 22.4 µM [inhibitor, partial curve].
With O=S(=O)(c1ccccc1)N1CCN(S(=O)(=O)c2ccccc2)CC1 the “activity change, negative = inhibition” value was inactive: 22.7%.
For Cc1cc(C(C)(C)C)c(O)c(C(C)(C)C)c1, the Potency was inconclusive: 35.5 µM [inhibitor, full curve].
In the case of Cc1cc(C(=O)CCl)c(C)n1-c1cccc(S(=O)(=O)N2CCOCC2)c1, the Potency is reported as inconclusive: 15.8 µM [inhibitor, partial curve, poor fit].
Cc1cc(OC(=O)c2ccccc2)n(CCC#N)n1 was tested, and the Potency was inconclusive: 17.8 µM [inhibitor, partial curve, poor fit].
With O=C(COc1ccccc1Br)NC(=O)NC1CCCC1 the “activity change, negative = inhibition” value was inactive: -4.72%.
In the case of COc1ccc(CNc2cccc3[nH]c(C(F)(F)F)nc23)cc1, the Potency is reported as inconclusive: 89.1 µM [inhibitor, single point].
In the case of Cc1ccccc1CNC(=O)c1ccc(Cn2c(SCc3cccc(F)c3)nc3cccnc32)cc1, the “activity change, negative = inhibition” value is reported as inactive: 11.9%.
For Cc1ccc(C(=O)N2CCN(Cc3ccc4c(c3)OCO4)CC2)cc1C, the Potency was inconclusive: 79.4 µM [inhibitor, partial curve].
In the case of C(C#CCCCCCCCCC[n+]1ccccc1)#CCCCCCCCCC[n+]1ccccc1, the Potency is reported as active: 44.7 µM and active: 56.2 µM.
COc1cc(CNc2ncc(-c3ccc(Br)cc3)n2C)cc(OC)c1OC was tested, and the Potency was inconclusive: 39.8 µM [inhibitor, single point].
In the case of COC(=O)c1ccccc1NC(=S)NC(=O)C1CC1, the Potency is reported as inconclusive: 15.8 µM [inhibitor, partial curve, poor fit].
For O=C(/C=C/c1ccco1)NCC1OCCc2ccccc21 (centres undefined), the Potency was inconclusive: 3.16 µM [inhibitor, single point].
With COc1cccc(C(=O)Nc2c(C(=O)NC(C)(C)C)oc3ccccc23)c1 the “activity change, negative = inhibition” value was inactive: 61.4%.
For O=C(Cc1cccc2ccccc12)N/N=C/c1ccc(OC(=O)/C=C/c2ccco2)cc1, the Potency was inconclusive: 63.1 µM [inhibitor, partial curve, poor fit].
With Cc1cc2nc3c(=O)[nH]c(=S)[nH]c3nc2cc1NC(=O)C(F)(F)F the Potency was inconclusive: 79.4 µM [inhibitor, partial curve].
For COc1ccc(CC(=O)NCc2ccc3c(c2)CCN3C(=O)c2ccc(C)cc2)cc1OC, the “activity change, negative = inhibition” value was inactive: 7.18% [at 57.1 µM].
For CN1C(=O)C(CC(=O)N2CCN(C(c3ccccc3)c3ccccc3)CC2)N(C)C1=O (centres undefined), the Potency was inconclusive: 35.5 µM [inhibitor, single point].
In the case of CC(NC(=O)Cc1ccc(-c2ccccc2)cc1)c1ccccc1 (centres undefined), the “activity change, negative = inhibition” value is reported as inactive: -2.81%.
With Cc1ccc(S(=O)(=O)NC(Cc2ccccc2)C(=O)O)cc1 (centres undefined) the Potency was inconclusive: 6.31 µM [inhibitor, single point].
O=C1NN(c2ccccc2)C(=O)/C1=C\c1coc2ccc(O)cc2c1=O was tested, and the Potency was inconclusive: 22.4 µM [inhibitor, full curve].
With NC(=O)C1=C[C@@H](c2ccccc2)C[C@@H](OCc2ccc(CO)cc2)O1 the Potency was inconclusive: 5.01 µM [inhibitor, full curve, poor fit].
For CC(/C=N/n1c(-c2cc(C)[nH]n2)n[nH]c1=S)=C\c1ccco1, the Potency was inconclusive: 28.2 µM [inhibitor, single point].
